Measured values: the supplement of paper PMC9446081
Among all 39,000 compounds or so, about 220 (0.56%) showed activity. This is one part of the list.

system: Escherichia coli K-12 BW25113; experiment: relative growth (OD600 normalised to plate interquartile mean) (fraction); higher = less growth inhibition, active = 0.2 or less; details: 50 µM; LB; incubation time: overnight (16-24 h)
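Also: static incubation at 37 °C against the wild-type strain, values averaged over two biological replicates.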

Row | Compound | relative growth
1 | C[C@@H]1CN([C@@H](C)CO)C(=O)Cc2cc(NS(=O)(=O)c3cn(C)cn3)ccc2O[C@@H]1CN(C)C(=O)NC1CCCCC1 | inactive: 0.939
2 | COc1ccc(NC(=O)N(C)C[C@@H]2OCCCC[C@H](C)Oc3ccc(NC(=O)Nc4ccc(C(F)(F)F)cc4)cc3C(=O)N([C@@H](C)CO)C[C@H]2C)cc1 | inactive: 0.963
3 | Cc1ccc(S(=O)(=O)Nc2cccc3c2O[C@H](CN(C)S(C)(=O)=O)[C@H](C)CN([C@H](C)CO)C3=O)cc1 | inactive: 1
4 | CN1CCN(C(=O)C[C@@H]2CC[C@@H]3[C@H](COC[C@H](O)CN3C(=O)Nc3cc(Cl)cc(Cl)c3)O2)CC1 | inactive: 0.968
5 | CN(C)C(=O)C[C@H]1CC[C@@H]2[C@H](COc3ccc(NS(=O)(=O)c4cccc(F)c4)cc3C(=O)N2C)O1 | inactive: 1.01
6 | CCCCCCCCCCCCCCCCCCCC(=O)N[C@H]1CC[C@@]2(C)[C@@H](C1)C[C@@H](O)[C@@H]1[C@@H]2C[C@H](O)[C@]2(C)[C@@H]([C@H](C)CCC(=O)O)CC[C@@H]12 | inactive: 1.02
7 | C[C@@H]1CN([C@@H](C)CO)S(=O)(=O)c2ccc(C#CC(C)(C)O)cc2O[C@@H]1CN(C)C(=O)CN(C)C | inactive: 0.974
8 | C[C@H](CO)N1C[C@H](C)[C@H](CN(C)C(=O)Nc2ccccc2)Oc2c(NC(=O)c3ccc(-c4nccs4)cc3)cccc2C1=O | inactive: 1
9 | Cc1ccc(S(=O)(=O)N(C)C[C@H]2Oc3c(NS(=O)(=O)c4c(C)noc4C)cccc3C(=O)N([C@H](C)CO)C[C@H]2C)cc1 | inactive: 1.03
10 | C[C@H]1CCCCO[C@H](CN(C)Cc2ccccc2)[C@@H](C)CN([C@@H](C)CO)C(=O)c2cc(NC(=O)c3ccccc3)ccc2O1 | inactive: 1.01
11 | CC(C)C#Cc1ccc2c(c1)O[C@@H](CN(C)S(=O)(=O)c1cn(C)cn1)[C@@H](C)CN([C@@H](C)CO)S2(=O)=O | inactive: 0.991
12 | O=C1C[C@]2(c3ccc([N+](=O)[O-])cc3)C(=O)N(C3CC3)c3cc(CO)ccc3[C@H]2N1CC12CC3CC(CC(C3)C1)C2 | inactive: 1.01
13 | CC(C)NC(=O)N(C)C[C@H]1Oc2c(NS(=O)(=O)c3ccc(F)cc3)cccc2C(=O)N([C@@H](C)CO)C[C@@H]1C | inactive: 0.978
14 | Cc1ccc(S(=O)(=O)Nc2ccc3c(c2)C(=O)N([C@@H](C)CO)C[C@H](C)[C@@H](CN(C)C(=O)Nc2ccc4c(c2)OCO4)OCCCC[C@H](C)O3)cc1 | inactive: 1.02
15 | C[C@@H]1CN([C@@H](C)CO)C(=O)c2cc(NC(=O)Cc3cn(C)c4ccccc34)ccc2O[C@@H]1CN(C)Cc1ccc(C(F)(F)F)cc1 | inactive: 0.978
16 | COc1ccc2[nH]cc(CCNC(C)=O)c2c1 | inactive: 1.04
17 | COc1ccc(CN(C)C[C@@H]2OCCCC[C@@H](C)Oc3ccc(NC(=O)Nc4cccc5ccccc45)cc3C(=O)N([C@@H](C)CO)C[C@H]2C)cc1 | inactive: 1.02
18 | COc1ccc(S(=O)(=O)N(C)C[C@@H]2Oc3ncc(C#CC4(O)CCCC4)cc3C(=O)N([C@@H](C)CO)C[C@@H]2C)cc1 | inactive: 0.957
19 | Cc1noc(C)c1NC(=O)N(C)C[C@@H]1OCCCC[C@@H](C)Oc2ccc(NC(=O)Nc3ccccc3)cc2C(=O)N([C@H](C)CO)C[C@@H]1C | inactive: 1

Row | Compound | relative growth
20 | C[C@H]1CN([C@@H](C)CO)C(=O)Cc2cc(NC(=O)Nc3ccc(C(F)(F)F)cc3)ccc2O[C@H]1CN(C)C(=O)Nc1cccc2ccccc12 | inactive: 0.99
21 | O=C([O-])c1ccccc1O.[Na+] | inactive: 1.06
22 | CC1(C)OC2CC(=O)OCC23C1CC(=O)C1(C)C3CCC2(C)C(c3ccoc3)OC(=O)C3OC321 (stereo not drawn) | inactive: 0.929
23 | C[C@H](CO)N1C[C@H](C)[C@@H](CN(C)S(=O)(=O)c2cccs2)Oc2ccc(NS(C)(=O)=O)cc2C1=O | inactive: 0.974
24 | C[C@H](O)[C@H](O)[C@@H](O)[C@@H](O)/C=N/NC(=O)CCCCCC(=O)NO | inactive: 0.972
25 | CCS(=O)(=O)N1[C@@H](CO)[C@H](c2ccccc2)C12CN(C(=O)CN(C)C)C2 | inactive: 1
26 | C[C@@H]1CN([C@H](C)CO)C(=O)c2cc(NS(=O)(=O)c3cn(C)cn3)ccc2O[C@@H]1CN(C)S(=O)(=O)c1ccc(Cl)cc1 | inactive: 0.984
27 | CCC(C)C1OC2(C=CC1C)CC1CC(CC=C(C)C(OC3CC(OC)C(OC4CC(OC)C(O)C(C)O4)C(C)O3)C(C)C=CC=C3COC4C(OC)C(C)=CC(C(=O)O1)C34O)O2 (stereo not drawn) | inactive: 0.949
28 | CC(C)N1CC2(CN(Cc3ccc(-c4ccccc4)cc3)C2)Oc2c(NC(=O)c3ccncc3)cccc2C1=O | inactive: 1.03
29 | COCC(=O)N1C[C@H](C)[C@@H](OC)CN(C)C(=O)c2ccc(NC(=O)c3cc(C)on3)cc2OC[C@@H]1C | inactive: 1
30 | CN1C(=O)c2cc(NC(=O)C3CCC3)ccc2OC[C@@H]2O[C@H](CC(=O)NCCc3ccncc3)CC[C@@H]21 | inactive: 0.973
31 | C[C@@H]1CN([C@H](C)CO)C(=O)c2cc(NC(=O)NC3CCCCC3)ccc2O[C@H]1CN(C)Cc1ccc(Cl)c(Cl)c1 | inactive: 1.06
32 | COc1ncnc(OC)c1C | inactive: 0.824
33 | Cc1noc(C)c1NC(=O)N(C)C[C@H]1OCCCC[C@@H](C)Oc2ccc(NC(=O)Nc3cccc4ccccc34)cc2C(=O)N([C@H](C)CO)C[C@@H]1C | inactive: 0.976
34 | COc1ccc2c3c(n(c2c1)C)[C@H](CO)N(C[C@]13CCN(CC1)C(=O)c1cnccn1)C(=O)c1cnccn1 | inactive: 0.996
35 | COCCCNc1ncnc(N)c1[N+](=O)[O-] | inactive: 1.02
36 | C[C@@H]1CN([C@H](C)CO)C(=O)c2cc(NS(C)(=O)=O)ccc2O[C@@H](C)CCCCO[C@@H]1CN(C)C(=O)c1ccncc1 | inactive: 1
37 | C[C@@H]1CN([C@@H](C)CO)C(=O)c2cccc(NC(=O)c3ccc(-c4nccs4)cc3)c2O[C@H]1CN(C)C(=O)Nc1ccccc1 | inactive: 0.981
38 | C[C@@H]1CN([C@H](C)CO)C(=O)Cc2cc(NC(=O)Nc3cccc4ccccc34)ccc2O[C@@H]1CN(C)Cc1ccc(Oc2ccccc2)cc1 | inactive: 1.02
